# Values quoted from earlier work, collected in PMC11006913.
# Substitutions are numbered along the chain they refer to. The list shows a part of the results.
# What was measured:
# Conditions in all cases: PBM; conditions not shown; double strand, one strand shown; scale: upbm affinity estimate (log intensity, higher = more binding, comparable within an allelic series)
# PBX4 (Homo sapiens) = target: T1, PBX4 (Homo sapiens) (UniProt Q9BYU1)
# T1 sequence: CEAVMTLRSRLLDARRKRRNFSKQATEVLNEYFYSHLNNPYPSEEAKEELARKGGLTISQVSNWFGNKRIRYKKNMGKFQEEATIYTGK
# [1] = target: T2, PBX4 R215Q (Homo sapiens) (UniProt Q9BYU1)
# T2 sequence: T1 sequence with R19Q
# [2] = target: PITX2 L100Q (Homo sapiens) (UniProt Q99697)
# [3] = target: PITX2 R108H (Homo sapiens) (UniProt Q99697)
# [4] = target: PITX2 R130W (Homo sapiens) (UniProt Q99697)
# [5] = target: PITX2 T114P (Homo sapiens) (UniProt Q99697)
# [6] = target: PROP1 R112Q (Homo sapiens) (UniProt O75360)
# Chain of UniProt O75360 (O75360 56-141 R112Q): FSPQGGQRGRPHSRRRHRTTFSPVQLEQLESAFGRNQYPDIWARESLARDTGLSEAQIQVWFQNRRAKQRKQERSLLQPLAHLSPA
Sequence,binding signal (PBX4 (Homo sapiens)),binding signal [1],binding signal [2],binding signal [3],binding signal [4],binding signal [5],binding signal [6]
CCGCCCAG [8-mer CCGCCCAG],9.69,9.71,,,,,
TGAGCGCA [8-mer TGAGCGCA],9.76,9.78,,,,,
ATATCCTC [8-mer ATATCCTC],,,9.79,8.74,8.66,,
TAAGCTTA [8-mer TAAGCTTA],,,10.9,,,,
GAGGCCCC [8-mer GAGGCCCC],9.68,9.71,8.23,7.97,7.87,8.04,
CACAATAA [8-mer CACAATAA],,,9.5,8.83,8.78,,
ATACCCAG [8-mer ATACCCAG],9.93,9.9,,,,,
AACTTAAA [8-mer AACTTAAA],,,9.37,8.7,8.69,,
GAGCGGGC [8-mer GAGCGGGC],,,7.97,8.03,7.9,8.02,
GTCGCACA [8-mer GTCGCACA],9.9,9.8,,,,,
TCATCACA [8-mer TCATCACA],10.7,10.2,,,,,
ATCAATCA [8-mer ATCAATCA],11.1,10.3,,,,,12.3
TAATGCAA [8-mer TAATGCAA],,,9.87,8.86,8.8,,
GAGATTTA [8-mer GAGATTTA],,,10.4,8.95,8.54,,
CTGGATAA [8-mer CTGGATAA],,,9.96,8.71,8.55,,
AGATCAAT [8-mer AGATCAAT],,,9.81,8.72,8.52,,
AGTGATAA [8-mer AGTGATAA],,,9.73,8.91,8.85,,
ATTACACA [8-mer ATTACACA],,,9.76,8.98,8.84,,
GTGCATTA [8-mer GTGCATTA],,,9.92,8.82,8.67,,
CAGACCTC [8-mer CAGACCTC],,,8.39,8.15,8.04,8.2,
CTATGGGC [8-mer CTATGGGC],9.86,9.85,,,,,
ACGGGCGA [8-mer ACGGGCGA],9.75,9.76,8.16,8.2,8.11,8.22,
ATGACTAA [8-mer ATGACTAA],,,9.47,8.71,8.64,,
GTATTTTA [8-mer GTATTTTA],,,9.53,8.88,,,
GCTAGCAA [8-mer GCTAGCAA],9.96,9.87,,,,,
GGCTCGGA [8-mer GGCTCGGA],9.72,9.72,,,,,

Sequence,binding signal (PBX4 (Homo sapiens)),binding signal [1],binding signal [2],binding signal [3],binding signal [4],binding signal [5],binding signal [6]
GGCGATTA [8-mer GGCGATTA],,,10.3,8.84,8.36,,
ACTTAACT [8-mer ACTTAACT],,,9.67,8.82,8.72,,
CTTGTCAA [8-mer CTTGTCAA],10.7,10.1,,,,,
GTCCCCAC [8-mer GTCCCCAC],,,8.33,8.05,7.96,8.14,
CTAATCTC [8-mer CTAATCTC],,,11.2,9.43,8.58,9.67,
GTGGCCAC [8-mer GTGGCCAC],,,8.38,8.15,8,8.23,
GTAATCCA [8-mer GTAATCCA],,,11.1,9.21,8.65,9.58,
ACTAACCC [8-mer ACTAACCC],,,9.5,8.65,8.53,8.74,
CCCATGCC [8-mer CCCATGCC],,,7.95,8.03,7.97,8.09,
GGATCACC [8-mer GGATCACC],,,9.61,8.45,8.4,8.54,
GAACCGCC [8-mer GAACCGCC],,,8.28,8.06,8.02,8.08,
TAATCCTA [8-mer TAATCCTA],,,11.4,9.48,8.65,9.96,
ACTTAATC [8-mer ACTTAATC],,,10.9,9.35,8.66,9.57,
CCGGCCCC [8-mer CCGGCCCC],,,8.27,7.93,7.64,7.91,
GGCGGCCA [8-mer GGCGGCCA],,,8.22,8.07,7.94,8.11,
AGATTAGC [8-mer AGATTAGC],,,10.9,9.11,8.53,9.32,
TCACTTAA [8-mer TCACTTAA],,,9.85,8.91,8.75,8.73,
CGCCCGAC [8-mer CGCCCGAC],,,8.18,8.1,7.98,8.11,
CCGCCACG [8-mer CCGCCACG],,,8.35,8.15,8.05,8.12,
CGGATTAC [8-mer CGGATTAC],,,11.1,9.38,8.54,9.75,
AGATTATC [8-mer AGATTATC],,,10.9,9.21,8.72,9.39,
GGATTAGA [8-mer GGATTAGA],,,11.4,9.53,8.55,10.1,
ACTAATCT [8-mer ACTAATCT],,,11.2,9.29,8.56,9.47,
AGGATTTA [8-mer AGGATTTA],,,10.8,9.22,8.71,9.42,
CCTCCTCG [8-mer CCTCCTCG],,,8.34,8.04,7.98,8.1,
GCGCACCC [8-mer GCGCACCC],,,8,8.04,7.96,8.04,

Sequence,binding signal (PBX4 (Homo sapiens)),binding signal [1],binding signal [2],binding signal [3],binding signal [4],binding signal [5],binding signal [6]
ATTTAACC [8-mer ATTTAACC],,,9.71,8.7,8.5,8.79,
AGGCTTAA [8-mer AGGCTTAA],,,10.9,9.08,8.44,9.36,
GCGTCTCC [8-mer GCGTCTCC],,,8.27,8.27,8.19,8.28,
AATAATCC [8-mer AATAATCC],,,11.3,9.59,8.74,9.9,
CTTAAGCC [8-mer CTTAAGCC],,,10.7,8.91,8.27,9.27,
CCTACCGC [8-mer CCTACCGC],,,8.28,8.1,7.94,8.13,
GGGATTTA [8-mer GGGATTTA],,,10.8,9.09,8.46,9.52,
CCGCGGCC [8-mer CCGCGGCC],,,7.93,8,7.78,7.96,
CACCGGGG [8-mer CACCGGGG],,,8.01,7.88,7.75,7.92,
AGCGCGGG [8-mer AGCGCGGG],,,8.29,8.14,7.97,8.09,
CAGGCCCA [8-mer CAGGCCCA],,,8.47,8.06,7.97,8.15,
TCGCTTAA [8-mer TCGCTTAA],,,9.67,8.75,8.53,8.74,
GGATTTAA [8-mer GGATTTAA],,,10.8,9.17,8.65,9.46,
GGGCCCCC [8-mer GGGCCCCC],,,7.84,7.68,7.48,7.68,
AGGGCCCC [8-mer AGGGCCCC],,,8.17,7.89,7.75,7.96,
ATGGATTA [8-mer ATGGATTA],,,11.3,9.43,8.63,9.84,
CAAATACC [8-mer CAAATACC],,,9.5,8.64,8.57,8.69,
CCGGTACC [8-mer CCGGTACC],,,8.21,8.09,8,8.2,
ACGGATTA [8-mer ACGGATTA],,,11.4,9.62,8.74,9.97,
ATAGATTA [8-mer ATAGATTA],,,10.9,9.31,8.9,9.45,
CATAATCC [8-mer CATAATCC],,,11.1,9.36,8.51,9.7,
AGATTAAT [8-mer AGATTAAT],,,11.1,9.54,8.71,9.71,
GAGGTTGC [8-mer GAGGTTGC],,,8.04,8.04,8.05,8.08,
GTAGATTA [8-mer GTAGATTA],,,10.9,9.3,8.8,9.42,
ACGGGTCC [8-mer ACGGGTCC],,,8.1,8.14,8.04,8.13,
ATAATCCC [8-mer ATAATCCC],,,11.5,9.76,8.49,10.2,

Sequence,binding signal (PBX4 (Homo sapiens)),binding signal [1],binding signal [2],binding signal [3],binding signal [4],binding signal [5],binding signal [6]
CCTGGTAG [8-mer CCTGGTAG],,,8.27,8.22,8.1,8.17,
CGGGCCGC [8-mer CGGGCCGC],,,7.96,7.89,7.68,7.9,
AGTTAATC [8-mer AGTTAATC],,,11,9.34,8.63,9.55,
GGGGATTA [8-mer GGGGATTA],,,11.8,9.76,8.36,10.4,
CGACCCTC [8-mer CGACCCTC],,,8.28,8.15,8.11,8.13,
GTGCGCCA [8-mer GTGCGCCA],,,7.92,8.14,8.08,8.18,
AGAGATTA [8-mer AGAGATTA],,,11.2,9.56,8.65,9.88,
AGATTAAG [8-mer AGATTAAG],,,11.1,9.38,8.65,9.57,
CTAATCCA [8-mer CTAATCCA],,,11.4,9.41,8.5,9.85,
GCTAATCC [8-mer GCTAATCC],,,11.5,9.55,8.3,10.1,
CAGCCGCG [8-mer CAGCCGCG],,,8.13,7.96,7.96,8.02,
AGATTAAA [8-mer AGATTAAA],,,11,9.34,8.76,9.54,
CGCCACCC [8-mer CGCCACCC],,,8.11,8.14,7.94,8.14,
TAATCTCA [8-mer TAATCTCA],,,10.9,9.19,8.66,9.46,
CGAGTGCG [8-mer CGAGTGCG],,,8.17,8.32,8.4,8.19,
CGCATGCG [8-mer CGCATGCG],,,8.27,8.25,8.12,8.29,
GTGGATTA [8-mer GTGGATTA],,,11.4,9.51,8.6,9.84,
GGCGCCAC [8-mer GGCGCCAC],,,8.31,8.01,7.95,8.07,
CGACAGGC [8-mer CGACAGGC],,,8.31,8.15,8.03,8.1,
CGTAATCC [8-mer CGTAATCC],,,11.1,9.3,8.43,9.74,
TAATCCGA [8-mer TAATCCGA],,,11.3,9.58,8.62,9.93,
ACTAAGCC [8-mer ACTAAGCC],,,10.8,8.99,8.47,9.23,
ATAATCTA [8-mer ATAATCTA],,,10.8,9.34,8.92,9.44,
AGGATTAC [8-mer AGGATTAC],,,11.2,9.43,8.62,9.83,
